Assay results reported in a collection of fitness landscapes (doi:10.1016/j.celrep.2020.107928).
The full ranking holds about 81,000 sequences; the median of “one-hybrid fitness for binding NBS DNA” is about -0.1, and the highest 2% start at about 0.36. Some of the results follow.

B1: Caulobacter ParB omega fusion; a variant is named by its letters at X, in order, B8GW30 (parent)
chain: MESVVVGEPGMSEGRRGLGRGLSALLGEVDAAPAQAPGEQLGGSREAPIEILQRNPDQPRRTFREEDLEDLSNSIREKGVLQPILVRPSPDTAGEYQIVAGERAWRAAQRAGLKTVPIMVRELDDLAVLEIGIIENVQRADLNVLEEALSYKVLMEKFERTQENIAQTIGKSXSHVANXMRLLXLPDEVQSYLVSGELTAXHARAIAAAADPVALAKQIIEGGLSVRETEALARKAPNLSAGKSKGGRPPRVKDTDTQALESDLSSVLGLDVSIDHRGSTGTLTITYATLEQLDDLCNRLTRGI

Variants of: B1
Assay: one-hybrid fitness for binding NBS DNA (the Noc-binding site; scaled: cognate 1, non-cognate 0); higher = stronger binding
Settings: with NBS DNA site
Outline: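 In E. coli USO, a HIS3 reporter with its site placed 19 bp from the promoter was used to select Caulobacter ParB variants randomised at four specificity codons. Growth lasted 48 hours at 37°C on histidine-free M9 containing 0.1 mM IPTG and 5 mM 3-AT. Fitness was taken as the log change in variant-to-wild-type read ratio from Illumina sequencing of pre- and post-selection plasmids, rescaled between the non-cognate and cognate sites.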

First: DESR
Second: RTDT
The “one-hybrid fitness for binding NBS DNA” value of the first is lower: no more than 0.2 for the first, 0.284 for the second.

QVVP and NDCG cannot be ordered by “one-hybrid fitness for binding NBS DNA” value: no more than 0.2 for the first, no more than 0.2 for the second.

GANY and GHNS cannot be ordered by “one-hybrid fitness for binding NBS DNA” value: no more than 0.2 for the first, no more than 0.2 for the second.

Compared with KSGN, TCKR is higher in “one-hybrid fitness for binding NBS DNA” value: no more than 0.2 for the first, 0.262 for the second.

PWQC and KLAR cannot be ordered by “one-hybrid fitness for binding NBS DNA” value: no more than 0.2 for the first, no more than 0.2 for the second.

KAYA and TGCC cannot be ordered by “one-hybrid fitness for binding NBS DNA” value: no more than 0.2 for the first, no more than 0.2 for the second.

YYGT and IYPC cannot be ordered by “one-hybrid fitness for binding NBS DNA” value: no more than 0.2 for the first, no more than 0.2 for the second.

VEFT and ESFI cannot be ordered by “one-hybrid fitness for binding NBS DNA” value: no more than 0.2 for the first, no more than 0.2 for the second.

CNLV and TIKT cannot be ordered by “one-hybrid fitness for binding NBS DNA” value: no more than 0.2 for the first, no more than 0.2 for the second.

ITNL and GTMT cannot be ordered by “one-hybrid fitness for binding NBS DNA” value: no more than 0.2 for the first, no more than 0.2 for the second.

SFAY and QLNC cannot be ordered by “one-hybrid fitness for binding NBS DNA” value: no more than 0.2 for the first, no more than 0.2 for the second.

YTKD and TSSE cannot be ordered by “one-hybrid fitness for binding NBS DNA” value: no more than 0.2 for the first, no more than 0.2 for the second.

KFVS and AAPT cannot be ordered by “one-hybrid fitness for binding NBS DNA” value: no more than 0.2 for the first, no more than 0.2 for the second.

First: AQPV
Second: RKRQ
The “one-hybrid fitness for binding NBS DNA” value of the first is lower: no more than 0.2 for the first, 0.246 for the second.

RSMI and AFFK cannot be ordered by “one-hybrid fitness for binding NBS DNA” value: no more than 0.2 for the first, no more than 0.2 for the second.

MRSV and QAEW cannot be ordered by “one-hybrid fitness for binding NBS DNA” value: no more than 0.2 for the first, no more than 0.2 for the second.

CVRW and LTIF cannot be ordered by “one-hybrid fitness for binding NBS DNA” value: no more than 0.2 for the first, no more than 0.2 for the second.

VVAV and TQVQ cannot be ordered by “one-hybrid fitness for binding NBS DNA” value: no more than 0.2 for the first, no more than 0.2 for the second.

PRSW and IKYM cannot be ordered by “one-hybrid fitness for binding NBS DNA” value: no more than 0.2 for the first, no more than 0.2 for the second.

VVQG and LDGF cannot be ordered by “one-hybrid fitness for binding NBS DNA” value: no more than 0.2 for the first, no more than 0.2 for the second.

KDMV and APQG cannot be ordered by “one-hybrid fitness for binding NBS DNA” value: no more than 0.2 for the first, no more than 0.2 for the second.

SYTR and FLKT cannot be ordered by “one-hybrid fitness for binding NBS DNA” value: no more than 0.2 for the first, no more than 0.2 for the second.

DACS and PVTL cannot be ordered by “one-hybrid fitness for binding NBS DNA” value: no more than 0.2 for the first, no more than 0.2 for the second.

CIYT and TRAG cannot be ordered by “one-hybrid fitness for binding NBS DNA” value: no more than 0.2 for the first, no more than 0.2 for the second.

GETA and YVVS cannot be ordered by “one-hybrid fitness for binding NBS DNA” value: no more than 0.2 for the first, no more than 0.2 for the second.

DRPI and ITLT cannot be ordered by “one-hybrid fitness for binding NBS DNA” value: no more than 0.2 for the first, no more than 0.2 for the second.

ALAC and SKNS cannot be ordered by “one-hybrid fitness for binding NBS DNA” value: no more than 0.2 for the first, no more than 0.2 for the second.

KMLP and TFLV cannot be ordered by “one-hybrid fitness for binding NBS DNA” value: no more than 0.2 for the first, no more than 0.2 for the second.

NHSS and CYGC cannot be ordered by “one-hybrid fitness for binding NBS DNA” value: no more than 0.2 for the first, no more than 0.2 for the second.

RQVP and PPHI cannot be ordered by “one-hybrid fitness for binding NBS DNA” value: no more than 0.2 for the first, no more than 0.2 for the second.

GNRT and SDNI cannot be ordered by “one-hybrid fitness for binding NBS DNA” value: no more than 0.2 for the first, no more than 0.2 for the second.

YHWW and IMII cannot be ordered by “one-hybrid fitness for binding NBS DNA” value: no more than 0.2 for the first, no more than 0.2 for the second.

GCQT and RGEE cannot be ordered by “one-hybrid fitness for binding NBS DNA” value: no more than 0.2 for the first, no more than 0.2 for the second.

KTNG and RDKR cannot be ordered by “one-hybrid fitness for binding NBS DNA” value: no more than 0.2 for the first, no more than 0.2 for the second.

HQHW and NADC cannot be ordered by “one-hybrid fitness for binding NBS DNA” value: no more than 0.2 for the first, no more than 0.2 for the second.

QYIG and REQR cannot be ordered by “one-hybrid fitness for binding NBS DNA” value: no more than 0.2 for the first, no more than 0.2 for the second.

CMRA and SMAG cannot be ordered by “one-hybrid fitness for binding NBS DNA” value: no more than 0.2 for the first, no more than 0.2 for the second.

SIIS and AVFR cannot be ordered by “one-hybrid fitness for binding NBS DNA” value: no more than 0.2 for the first, no more than 0.2 for the second.

KNCR and YNTC cannot be ordered by “one-hybrid fitness for binding NBS DNA” value: no more than 0.2 for the first, no more than 0.2 for the second.

KPIL and EAET cannot be ordered by “one-hybrid fitness for binding NBS DNA” value: no more than 0.2 for the first, no more than 0.2 for the second.

First: RRDC
Second: RNFV
The “one-hybrid fitness for binding NBS DNA” value of the first is higher: 0.318 for the first, no more than 0.2 for the second.

HNDR and QKLG cannot be ordered by “one-hybrid fitness for binding NBS DNA” value: no more than 0.2 for the first, no more than 0.2 for the second.

EAFR and GQFS cannot be ordered by “one-hybrid fitness for binding NBS DNA” value: no more than 0.2 for the first, no more than 0.2 for the second.

WKSD and HWKS cannot be ordered by “one-hybrid fitness for binding NBS DNA” value: no more than 0.2 for the first, no more than 0.2 for the second.

LGSL and ETNW cannot be ordered by “one-hybrid fitness for binding NBS DNA” value: no more than 0.2 for the first, no more than 0.2 for the second.

IKRC and QKGG cannot be ordered by “one-hybrid fitness for binding NBS DNA” value: no more than 0.2 for the first, no more than 0.2 for the second.

PVGK and VKTQ cannot be ordered by “one-hybrid fitness for binding NBS DNA” value: no more than 0.2 for the first, no more than 0.2 for the second.

PFTL and LRSN cannot be ordered by “one-hybrid fitness for binding NBS DNA” value: no more than 0.2 for the first, no more than 0.2 for the second.

IHTA and FEMV cannot be ordered by “one-hybrid fitness for binding NBS DNA” value: no more than 0.2 for the first, no more than 0.2 for the second.

First: QHRI
Second: DRET
The “one-hybrid fitness for binding NBS DNA” value of the first is higher: 0.295 for the first, no more than 0.2 for the second.

Going from RTSA to QALM, the “one-hybrid fitness for binding NBS DNA” value falls from 0.231 to no more than 0.2.

HETR and GTNT cannot be ordered by “one-hybrid fitness for binding NBS DNA” value: no more than 0.2 for the first, no more than 0.2 for the second.

RTML and NKIR cannot be ordered by “one-hybrid fitness for binding NBS DNA” value: no more than 0.2 for the first, no more than 0.2 for the second.

NHVY and NPRA cannot be ordered by “one-hybrid fitness for binding NBS DNA” value: no more than 0.2 for the first, no more than 0.2 for the second.

PMQT and VLGN cannot be ordered by “one-hybrid fitness for binding NBS DNA” value: no more than 0.2 for the first, no more than 0.2 for the second.

Going from QERR to RFNN, the “one-hybrid fitness for binding NBS DNA” value falls from 0.245 to no more than 0.2.

VAPR and QSQC cannot be ordered by “one-hybrid fitness for binding NBS DNA” value: no more than 0.2 for the first, no more than 0.2 for the second.

REMV and KSSQ cannot be ordered by “one-hybrid fitness for binding NBS DNA” value: no more than 0.2 for the first, no more than 0.2 for the second.

GSGT and LQVK cannot be ordered by “one-hybrid fitness for binding NBS DNA” value: no more than 0.2 for the first, no more than 0.2 for the second.

YKRM and IEPD cannot be ordered by “one-hybrid fitness for binding NBS DNA” value: no more than 0.2 for the first, no more than 0.2 for the second.

RFSV and HAGA cannot be ordered by “one-hybrid fitness for binding NBS DNA” value: no more than 0.2 for the first, no more than 0.2 for the second.

DWTS and WYGC cannot be ordered by “one-hybrid fitness for binding NBS DNA” value: no more than 0.2 for the first, no more than 0.2 for the second.

CPPP and GSIC cannot be ordered by “one-hybrid fitness for binding NBS DNA” value: no more than 0.2 for the first, no more than 0.2 for the second.

PARK and WPHS cannot be ordered by “one-hybrid fitness for binding NBS DNA” value: no more than 0.2 for the first, no more than 0.2 for the second.

KPDS and SIYT cannot be ordered by “one-hybrid fitness for binding NBS DNA” value: no more than 0.2 for the first, no more than 0.2 for the second.

IRTG and NLNG cannot be ordered by “one-hybrid fitness for binding NBS DNA” value: no more than 0.2 for the first, no more than 0.2 for the second.

FIRV and QVWM cannot be ordered by “one-hybrid fitness for binding NBS DNA” value: no more than 0.2 for the first, no more than 0.2 for the second.

IKSG and PCFV cannot be ordered by “one-hybrid fitness for binding NBS DNA” value: no more than 0.2 for the first, no more than 0.2 for the second.

YLWC and AYKR cannot be ordered by “one-hybrid fitness for binding NBS DNA” value: no more than 0.2 for the first, no more than 0.2 for the second.

RWFG and FDYG cannot be ordered by “one-hybrid fitness for binding NBS DNA” value: no more than 0.2 for the first, no more than 0.2 for the second.

GLPN and MFCL cannot be ordered by “one-hybrid fitness for binding NBS DNA” value: no more than 0.2 for the first, no more than 0.2 for the second.

GCMA and PFKD cannot be ordered by “one-hybrid fitness for binding NBS DNA” value: no more than 0.2 for the first, no more than 0.2 for the second.

NEVT and SAII cannot be ordered by “one-hybrid fitness for binding NBS DNA” value: no more than 0.2 for the first, no more than 0.2 for the second.

First: QMYI
Second: WYEF
The “one-hybrid fitness for binding NBS DNA” value of the first is lower: no more than 0.2 for the first, 0.201 for the second.

EEFL and QFRL cannot be ordered by “one-hybrid fitness for binding NBS DNA” value: no more than 0.2 for the first, no more than 0.2 for the second.

SVKT and IHKS cannot be ordered by “one-hybrid fitness for binding NBS DNA” value: no more than 0.2 for the first, no more than 0.2 for the second.

For KTCE, the “one-hybrid fitness for binding NBS DNA” value was no more than 0.2.
